Out of some 370,000 compounds screened, about 1,100 (0.3%) were called active. Another 1% or so got no clear call; they are omitted. The call rests on the fitted dose curve; in most records, active means well fitted activation curve with a large enough effect; inconclusive means small, poorly fitted or top-dose-only effect; inactive means flat fitted curve, though single readings scatter. The list shows a part of the results, in another mix than the full data. Where a structure was tested more than once in an assay, its records may differ in their call.

Data on 51 molecules can be found in PubChem BioAssay AID2676 (National Center for Advancing Translational Sciences (NCATS), 2010).
On the % scale 0 is the no-effect control and ±100 the full control effect; potency means the concentration at half of the fitted maximal effect.

Chain of UniProt Q9HBX9 (Q9HBX9 whole entry, looked up): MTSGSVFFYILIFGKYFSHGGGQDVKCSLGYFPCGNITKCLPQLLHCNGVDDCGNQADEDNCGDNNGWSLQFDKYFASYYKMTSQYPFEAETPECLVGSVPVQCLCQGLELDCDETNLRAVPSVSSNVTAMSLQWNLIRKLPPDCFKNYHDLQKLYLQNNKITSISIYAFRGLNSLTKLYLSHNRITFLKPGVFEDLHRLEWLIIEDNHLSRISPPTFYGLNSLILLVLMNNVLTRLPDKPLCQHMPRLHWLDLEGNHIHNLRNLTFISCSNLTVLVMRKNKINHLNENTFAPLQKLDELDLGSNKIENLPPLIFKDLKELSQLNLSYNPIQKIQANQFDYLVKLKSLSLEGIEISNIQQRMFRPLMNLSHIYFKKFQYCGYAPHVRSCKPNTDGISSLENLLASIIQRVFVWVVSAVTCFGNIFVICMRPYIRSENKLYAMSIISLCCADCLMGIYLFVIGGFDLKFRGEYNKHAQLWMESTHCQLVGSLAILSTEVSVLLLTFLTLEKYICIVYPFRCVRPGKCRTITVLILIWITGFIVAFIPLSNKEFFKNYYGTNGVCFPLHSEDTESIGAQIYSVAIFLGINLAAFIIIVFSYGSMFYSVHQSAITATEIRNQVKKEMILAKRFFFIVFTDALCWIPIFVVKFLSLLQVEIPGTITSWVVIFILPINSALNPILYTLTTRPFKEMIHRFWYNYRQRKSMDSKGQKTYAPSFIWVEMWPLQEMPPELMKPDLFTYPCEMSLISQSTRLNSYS

This test has as its target Relaxin receptor 1 (Homo sapiens) (UniProt Q9HBX9). Description: qHTS Assay for Agonists of the Relaxin Receptor RXFP1. Further: nearly all actives have a fitted effect of over 60% in size. The conditions noted are these: HEK293T-RXFP1 cAMP TR-FRET, 30 min; series mostly up to 57.5 µM; activation: at the top concentration. In short, it runs like this:
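HEK293T cells stably expressing RXFP1 were pretreated with the PDE4 inhibitor Ro 20174, exposed to compounds for 30 min at 37C, lysed, and cAMP was read by TR-FRET. Data normalized to buffer (basal) and 29 nM porcine relaxin (100%).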
In general terms: Quantitative high-throughput screening tests each substance at several concentrations.
For `NS(=O)(=O)c1ccc(Nc2ccc([N+](=O)[O-])c3nonc23)cc1`, the “activation” value is inactive: -35.2%.

Turning to `CCCC(=O)Nc1ncnc2c1ncn2[C@@H]1O[C@@H]2OP(=O)(O)OC[C@H]2[C@H]1OC(=O)CCC`, the Potency was active: 0.631 µM. For `COc1ccccc1CNC(=O)c1nn(-c2ccc(C)cc2)c(=O)c2c1c1ccccc1n2C`, the “activation” value was inactive: 9.29%. For the molecule `COc1cc2nc(SCC(=O)Nc3cccc(C)c3)n3nc(CCn4c(C)nc5ccccc54)nc3c2cc1OC`, the Potency is active: 17.8 µM.

As to `COc1cccc(C(=O)Nc2nnc(S(=O)(=O)N3CCCC3)s2)c1`, the “activation” value is inactive: -2.66%. Still for that read-out and setting: next, `Nc1ncnc2c1ncn2[C@@H]1O[C@H](CO)[C@@H](O)[C@H]1O`: inactive: 26.3%; `CCCN(CCC)C(=O)Cn1c(=O)n(CCCCCC(=O)Nc2ccccc2)c(=O)c2sccc21`: inactive: 22.5%. Same read-out and setting: in the case of `Cc1noc(C(F)(F)F)c1C(=O)NNC(=O)c1cccc(C(F)(F)F)c1` it was inactive: -52.4%. Turning to `Cc1nn(CCCC(=O)NCc2ccccc2)c(=O)c2nccn12`, the Potency was active: 28.2 µM.

For `O=C1C=C(Nc2ccccc2C(=O)O)c2ccccc2C1=O`, the “activation” value was inactive: -67.9%. Regarding `O=C1OC2(c3ccccc31)c1cc(I)c(O)c(I)c1Oc1c2cc(I)c(O)c1I`, the “activation” value is inactive: -35%. The same measure, in the same setting: next, `Cn1c2ccc(F)cc2c2nnc(SCCN3CCCCC3)nc21`: inactive: 27.9%; `N#CCC(=O)NNc1c([N+](=O)[O-])cc(C(F)(F)F)cc1[N+](=O)[O-]`: inactive: -41.6%. On the same count and under the same terms, in the case of `Cc1ccc(NC(=O)Cn2cc(C(=O)C3CC3)c3ccccc32)cc1` it was inactive: 10%. Take `CCOc1ccc(NC(=O)CSc2ncc3c(n2)-c2ccc(Cl)cc2N(Cc2ccccc2)S3(=O)=O)cc1`: the Potency is active: 11.2 µM.

Regarding `CCOC(=O)c1c(NC(=O)c2ccc(S(=O)(=O)N3CCC(C)CC3)cc2)sc2c1CCN(C)C2`, the “activation” value is inactive: -35.8%.

As to `CCOC(=O)CNC(=O)c1sc(NC(=O)/C=C/c2ccccc2)nc1C`, the “activation” value was inactive: -63%. Regarding `Cc1nc(N)sc1N=Nc1c(C)n(C)n(-c2ccccc2)c1=O`, the “activation” value was inactive: -59.7%. Still for that read-out and setting: in the case of `Cn1c(=O)c2c(ncn2CC(=O)N/N=C/C=C/c2ccccc2[N+](=O)[O-])n(C)c1=O` it was inactive: 22.3%; in that of `Cc1cc(C)c(NC(=O)CSc2ccc(-c3ccccn3)nn2)c(C)c1`, inactive: 28.1%. With `CC1(C)Cc2nc3sc4c(SCC(=O)NC(c5ccccc5)c5ccccc5)ncnc4c3cc2CO1`, the Potency is active: 3.16 µM. Turning to `Nc1c(S(=O)(=O)O)cc(NC(=O)c2ccccc2)c2c1C(=O)c1ccccc1C2=O`, the “activation” value is inactive: -46.4%. On the same count and under the same terms, next, `CCOc1ccc(C(=O)Nc2ccc3oc(-c4cccnc4)nc3c2)cc1`: inactive: -41.7%. Same read-out and setting: in the case of `c1ccc(-c2ccc3c(c2)NCCN3)cc1` it was inactive: -51.3%; in that of `Cc1ccc2nc(NCc3ccc(F)cc3)c3nncn3c2c1`, inactive: 20.1%; in that of `Cc1cc(=O)n2nc(N3CCC(C(=O)NCc4ccc(Cl)cc4)CC3)sc2n1`, inactive: 29.5%. The same measure, in the same setting: next, `CCOc1ncccc1C(=O)Nc1cccc(-c2nc3cccnc3s2)c1`: inactive: -45.2%. Turning to `Cc1cc2c(cc3c(SCc4cccc(Cl)c4)nnc(C)n32)o1`, the Potency is active: 22.4 µM. Consider `O=C(Nc1cccnc1Cl)c1cc(-c2ccc(Cl)cc2)on1`, for which the “activation” value was inactive: 4.44%. Turning to `Cn1cc(CCCC(=O)NCc2ccc(F)cc2)c2ccccc21`, the “activation” value was inactive: 5.78%. For `Cn1c(=O)c2c(nc(Cc3ccc(N)cc3)n2C)n(C)c1=O`, the Potency is active: 15.8 µM. Regarding `CCCCN(C)CCNC(=O)c1nn(-c2ccc(OC)cc2)c(=O)c2c1c1ccccc1n2C`, the “activation” value is inactive: 6.83%.

Turning to `COc1ccc(-c2nnn3c2nc(NCc2ccccc2)c2ccccc23)cc1`, the “activation” value was inactive: 11.6%. For `COCCCn1c(=N)c(C(=O)NC2CCCCC2)cc2c(=O)n3ccccc3nc21`, the “activation” value is inactive: 5.77%. Still for that read-out and setting: next, `CC1=C(C#N)C(NC(=O)c2ccccc2Cl)(C(F)(F)F)C(=O)N1` (stereo unspecified): inactive: -0.224%. As for `COc1ccc(C[C@H]2c3cc(O)c(OC)cc3CC[N+]2(C)[O-])cc1O` (stereo partly specified), the “activation” value is inactive: -42.3%. For the molecule `CCOC(=O)c1cnc2c(Cl)c(Cl)ccc2c1NCCN1CCOCC1`, the “activation” value is inactive: 8.79%.

For `COc1ccc(C)cc1NC(=O)c1ccc2c(=O)n3c(nc2c1)CCCCC3`, the “activation” value is inactive: -0.513%. For `CN1c2cc(Cl)ccc2-c2nc(SCC(=O)Nc3ccc(F)cc3F)ncc2S1(=O)=O`, the Potency was active: 31.6 µM.

Consider `CCCCOc1cccc(C2/C(=C(\O)c3ccc4c(c3)OCCO4)C(=O)C(=O)N2CCN2CCOCC2)c1` (stereo unspecified), for which the Potency was active: 25.1 µM.

For `NC(=O)c1cc(-c2ccccc2)nc2ccc(Br)cc12`, the “activation” value was inactive: -101%. As to `CCN1/C(=C2\C(=O)N(C)C(=S)N2c2ccccc2)C=Cc2ccccc21`, the “activation” value is inactive: -41.2%. As for `Cc1cccc(N(C)C(=O)c2cc3c(=O)[nH]c4ccc(C)cc4c3s2)c1`, the “activation” value is inactive: -30.5%. Consider `Cc1ccc(-c2cc(C(=O)NCc3cnn(C)c3C)c3cc(Br)ccc3n2)cc1`, for which the “activation” value is inactive: 24.8%. Same read-out and setting: in the case of `COc1cc(O)c(C(CCN2CCOCC2)c2ccc(N(C)C)cc2)c(OC)c1` (stereo unspecified) it was inactive: -36.5%; in that of `Cc1cccc(C)c1NC(=O)C(NS(=O)(=O)c1cccs1)c1ccccc1` (stereo unspecified), inactive: 0.638%; in that of `COc1cccc(N2CCN(C(=O)c3cc4c(s3)-c3ccccc3OC4)CC2)c1`, inactive: 0.725%. On the same count and under the same terms, in the case of `CCOc1ccc(C(=O)Nc2ccc3oc(-c4ccc5ccccc5c4)nc3c2)cc1` it was inactive: -36.2%; in that of `Cc1ccc(/C=C2\SC(=S)N(CCC(=O)NNS(=O)(=O)c3ccccc3)C2=O)cc1`, inactive: -139%. For the molecule `Cc1ccc(N2C(=O)CS/C2=N\C(=S)Nc2ccccc2)cc1`, the “activation” value was inactive: -51.9%. Still for that read-out and setting: in the case of `CN(Cc1ccc(F)cc1)S(=O)(=O)c1nnc(NC(=O)c2ccccc2Br)s1` it was inactive: 21.7%.
